Laboratory results from US7592419B2, “Macrocyclic inhibitors of hepatitis C virus NS3-serine protease” (Schering Corporation, priority 2003, dated 2009).
Where two headings read alike, the source gives them in different places.

Biological target: Recombinant heterodimeric HCV NS3/NS4A protease (strain 1a) (Hepatitis C virus genotype 1a, UniProt P27958)
Assay: Spectrophotometric assay for HCV protease inhibitory activity (chromogenic ester substrates)
Assay type: biochemical, hepatitis C virus (strain 1a)
Description: Assay for HCV Protease Inhibitory Activity:
Spectrophotometric Assay: Spectrophotometric assays for the HCV serine protease was performed on the inventive compounds by following the procedure described by R. Zhang et al, Analytical Biochemistry, 270 (1999) 268-275, the disclosure of which is incorporated herein by reference. The assay based on the proteolysis of chromogenic ester substrates is suitable for the continuous monitoring of HCV NS3 protease activity. The substrates were derived from the P side of the NS5A-NS5B junction sequence (Ac-DTEDVVX(Nva), where X=A or P) whose C-terminal carboxyl groups were esterified with one of four different chromophoric alcohols (3- or 4-nitrophenol, 7-hydroxy-4-methyl-coumarin, or 4-phenylazophenol). Presented below are the synthesis, characterization and application of these novel spectrophotometric ester substrates to high throughput screening and detailed kinetic evaluation of HCV NS3 protease inhibitors. Materials and Methods:
Protein concentrations were determined by the Biorad dye method using recombinant HCV protease standards previously quantified by amino acid analysis. Prior to assay initiation, the enzyme storage buffer (50 mM sodium phosphate pH 8.0, 300 mM NaCl, 10% glycerol, 0.05% lauryl maltoside and 10 mM DTT) was exchanged for the assay buffer (25 mM MOPS pH 6.5, 300 mM NaCl, 10% glycerol, 0.05% lauryl maltoside, 5 μM EDTA and 5 μM DTT) utilizing a Biorad Bio-Spin P-6 prepacked column.
Protease Assay: HCV protease assays were performed at 30° C. using a 200 μl reaction mix in a 96-well microtiter plate. Assay buffer conditions (25 mM MOPS pH 6.5, 300 mM NaCl, 10% glycerol, 0.05% lauryl maltoside, 5 μM EDTA and 5 μM DTT) were optimized for the NS3/NS4A heterodimer (D. L. Sali et al, ibid.)). Typically, 150 μl mixtures of buffer, substrate and inhibitor were placed in wells (final concentration of DMSO≦4% v/v) and allowed to preincubate at 30° C. for approximately 3 minutes. Fifty μls of prewarmed protease (12 nM, 30° C.) in assay buffer, was then used to initiate the reaction (final volume 200 μl). The plates were monitored over the length of the assay (60 minutes) for change in absorbance at the appropriate wavelength (340 nm for 3-Np and HMC, 370 nm for PAP, and 400 nm for 4-Np) using a Spectromax Plus microtiter plate reader equipped with a monochrometer (acceptable results can be obtained with plate readers that utilize cutoff filters). Proteolytic cleavage of the ester linkage between the Nva and the chromophore was monitored at the appropriate wavelength against a no enzyme blank as a control for non-enzymatic hydrolysis. The evaluation of substrate kinetic parameters was performed over a 30-fold substrate concentration range (−6-200 μM). Initial velocities were determined using linear regression and kinetic constants were obtained by fitting the data to the Michaelis-Menten equation using non-linear regression analysis (Mac Curve Fit 1.1, K. Raner). Turnover numbers (kcat) were calculated assuming the enzyme was fully active.
Evaluation of Inhibitors and Inactivators: The inhibition constants (Ki*) for the competitive inhibitors Ac-D-(D-Gla)-L-1-(Cha)-C-OH (27), Ac-DTEDVVA(Nva)-OH and Ac-DTEDWP(Nva)-OH were determined experimentally at fixed concentrations of enzyme and substrate by plotting vo/vi vs. inhibitor concentration ([I]o) according to the rearranged Michaelis-Menten equation for competitive inhibition kinetics: vo/vi=1+[I]o/(Ki(1+[S]o/Km)), where vo is the uninhibited initial velocity, vi is the initial velocity in the presence of inhibitor at any given inhibitor concentration ([I]o) and [S]o is the substrate concentration used. The resulting data were fitted using linear regression and the resulting slope, 1/(Ki(1+[S]o/Km), was used to calculate the Ki* value.

[1] = Table 2, 30° C., pH 6.5, read-out: Activity Ki* (nM) (rating)
[2] = Table 2A, 30° C., pH 6.5, read-out: Binding Activity (Ki rating)
[3] = Table 1, 30° C., pH 6.5, read-out: Binding Activity (Ki rating)
[4] = Table 3, 30° C., pH 6.5, read-out: Activity Ki*

SMILES | Ki [1] | other results
C=CCNC(=O)C(=O)[C@@H]1CCCCCCCOC[C@H](NC=O)C(=O)N2C[C@H]3[C@@H]([C@H]2C(=O)N1)C3(C)C [Example 57] | ≥ 1000 nM | –
CC(C)COC(=O)N[C@H]1CCC2OC2CCCC(C(=O)C(=O)NCC(=O)N[C@H](C(=O)OC(C)(C)C)c2ccccc2)NC(=O)[C@@H]2CCCN2C1=O (stereo partly drawn) [Example 87] | – | Ki [2]: ≥ 1000 nM
CC(C)(C)OC(=O)N[C@H]1CCCCCCCCCC[C@@H](C(=O)C(N)=O)NC(=O)[C@@H]2[C@@H]3[C@H](CN2C1=O)C3(C)C [Example 4] | – | Ki [3]: < 100 nM
CCCNC(=O)C(=O)[C@@H]1CCCCCCCCC[C@H](NC(=O)NC2(CS(=O)(=O)C(C)(C)C)CCCCC2)C(=O)N2C[C@H]3[C@@H]([C@H]2C(=O)N1)C3(C)C [Example 43] | < 100 nM | –
CCS(=O)(=O)N(C)C[C@@H](NC(=O)N[C@@H]1C(=O)N2C[C@H]3[C@@H]([C@H]2C(=O)N[C@H](C(=O)C(=O)NC2CC2)CCCCCCCO[C@H]1C)C3(C)C)C(C)(C)C [Example 76] | < 100 nM | –
C=CCNC(=O)C(=O)[C@@H]1CCCCCCCOC[C@H](NC(=O)N[C@H](CN2CCCCC2=O)C(C)(C)C)C(=O)N2C[C@H]3[C@@H]([C@H]2C(=O)N1)C3(C)C [Example 58] | < 100 nM | –
C=CCNC(=O)C(=O)[C@@H]1CCCCCCCCC[C@H](NC(=O)N[C@H](C(=O)C2CC2)C2CCCCC2)C(=O)N2C[C@H]3[C@@H]([C@H]2C(=O)N1)C3(C)C [Example 30] | – | Ki [3]: < 100 nM; Ki [4]: 5 nM
CC(C)(C)OC(=O)[C@@H](NC(=O)N[C@H]1CCCCCCCCCC[C@@H](C(=O)C(N)=O)NC(=O)[C@@H]2[C@@H]3[C@H](CN2C1=O)C3(C)C)C(C)(C)C [Example 7] | – | Ki [3]: < 100 nM
C=CCNC(=O)C(=O)[C@@H]1CCCCCCCCC[C@H](NC(=O)N[C@H](CN2CCCCC2=O)C(C)(C)C)C(=O)N2C[C@H]3[C@@H]([C@H]2C(=O)N1)C3(C)C [Example 46] | < 100 nM | –
CC1(C)C[C@H]2[C@H](CN3C(=O)[C@@H](NC(=O)OCc4ccccc4)CCCC/C=C/CCCC[C@@H](C(=O)C(N)=O)NC(=O)[C@H]23)O1 [Example 11] | – | Ki [3]: ≥ 1000 nM
CC1(C)CCN(C[C@@H](NC(=O)N[C@H]2COCCCCCCC[C@@H](C(=O)C(=O)NC3CC3)NC(=O)[C@@H]3[C@@H]4[C@H](CN3C2=O)C4(C)C)C(C)(C)C)C(=O)C1 [Example 61] | < 100 nM | –
C=CCNC(=O)C(=O)[C@@H]1CCCCCCCO[C@@H](C)[C@H](NC(=O)NC2(CS(=O)(=O)C(C)(C)C)CCCCC2)C(=O)N2C[C@H]3[C@@H]([C@H]2C(=O)N1)C3(C)C [Example 74] | < 100 nM | –
CC1(C)CC(=O)N(C[C@@H](NC(=O)N[C@H]2CCCCCCCCC[C@@H](C(=O)C(=O)NC3CC3)NC(=O)[C@@H]3[C@@H]4[C@H](CN3C2=O)C4(C)C)C(C)(C)C)C(=O)C1 [Example 67] | < 100 nM | –
CC(C)COC(=O)N[C@H]1CC/C=C/CC2(CC2)CC(C(=O)C(=O)NCC(=O)N[C@H](C(=O)OC(C)(C)C)c2ccccc2)NC(=O)[C@@H]2CCCN2C1=O (stereo partly drawn) [Example 83] | – | Ki [2]: ≥ 1000 nM
CC(C)COC(=O)N[C@H]1CCC(O)C(O)CCCC(C(=O)C(=O)NCC(=O)N[C@@H](C)C(=O)OC(C)(C)C)NC(=O)[C@@H]2CCCN2C1=O (stereo partly drawn) [Example 88] | – | Ki [2]: ≥ 1000 nM
CC1(C)[C@@H]2[C@H]3C(=O)N[C@H](C(=O)C(=O)NC4CC4)CCCCCCCCC[C@H](NC(=O)NC4(CS(=O)(=O)C(C)(C)C)CCCCC4)C(=O)N3C[C@@H]21 [Example 39] | < 100 nM | –
C=CCNC(=O)C(=O)[C@@H]1CCCCCCCO[C@@H](C)[C@H](NC(=O)N[C@H](CN(C)S(=O)(=O)CC)C(C)(C)C)C(=O)N2C[C@H]3[C@@H]([C@H]2C(=O)N1)C3(C)C [Example 66] | < 100 nM | –
C=CCNC(=O)C(=O)[C@@H]1CCCCCCCOC[C@H](NC(=O)N[C@H](CN2C(=O)CC(C)(C)CC2=O)C(C)(C)C)C(=O)N2C[C@H]3[C@@H]([C@H]2C(=O)N1)C3(C)C [Example 56] | < 100 nM | –
C=CCNC(=O)C(=O)[C@@H]1CCCCCCCOC[C@H](NC(=O)OC(C)(C)C)C(=O)N2C[C@H]3[C@@H]([C@H]2C(=O)N1)C3(C)C [Example 52] | 100 to 1000 nM | –
CC(C)(C)OC(=O)N[C@H]1CCCCCCCCC[C@@H](C(=O)C(=O)NCC2CC2)NC(=O)[C@@H]2[C@@H]3[C@H](CN2C1=O)C3(C)C [Example 32] | 100 to 1000 nM | –
CC1(C)[C@@H]2[C@H]3C(=O)N[C@H](C(=O)C(=O)NCC4CC4)CCCCCCCCC[C@H](NC(=O)NC4(CS(=O)(=O)C(C)(C)C)CCCCC4)C(=O)N3C[C@@H]21 [Example 40] | < 100 nM | –
C=CCNC(=O)C(=O)[C@@H]1CCCCCCCCC[C@H](NC(=O)N[C@H](CN2C(=O)c3ccccc3C2=O)C(C)(C)C)C(=O)N2C[C@H]3[C@@H]([C@H]2C(=O)N1)C3(C)C [Example 44] | < 100 nM | –
C=CCNC(=O)C(=O)[C@@H]1CCCCCCCCC[C@H](NC(=O)N[C@H](C(=O)C2CC2)C(C)C)C(=O)N2C[C@H]3[C@@H]([C@H]2C(=O)N1)C3(C)C [Example 29] | – | Ki [3]: < 100 nM; Ki [4]: 20 nM
CN(C)C(=O)[C@@H](NC(=O)CNC(=O)C(=O)[C@@H]1CCCC/C=C/CCCC(C)(C)[C@H](NC(=O)OCc2ccccc2)C(=O)N2C[C@H]3[C@@H]([C@H]2C(=O)N1)C3(C)C)c1ccccc1 [Example 90] | – | Ki [2]: 100 to 1000 nM
CC(C)(C)NC(=O)N[C@@H]1C(=O)N2C[C@H]3[C@@H]([C@H]2C(=O)N[C@H](C(=O)C(N)=O)CCCCCCCCCC1(C)C)C3(C)C [Example 17] | – | Ki [3]: < 100 nM
